Results on nine molecules are retold here after patent US20240101687A1 (ABL BIO, published 2024).

The target of assay [1] is T1, human IGF1R extracellular domain, His-tagged (human, UniProt P08069 31-932).
T1 construct: Bought (R&D Systems 391-GR or Sino Biological 10164-H08H); also called recombinant IGF1R; ECD of IGF1R
The assay can be described thus: ELISA on ECD of IGF1R. On the technique in general: ELISA stands for enzyme-linked immunosorbent assay.

Assay [2] deals with human alpha-synuclein aggregates (fibrils) (human, UniProt P37840). Briefly: ELISA, alpha-synuclein aggregates coated, antibody titrated up to 400 nM; C of the 4-P fit.
Another assay has as its target T2, human IGF1R on cells (human, UniProt P08069 31-1367).
T2 construct: also called endogenous IGF1R on the cell surface (MCF-7, JIMT-1, BT474, SKBR3); IGF1R library on OVCAR3 cells
Briefly: FACS on MCF-7 cells, 10 ug/mL (2nd Ab only: 2.86).

B1: Hu11F11(ver.2)-F06 (bispecific antibody)
heavy: EVQLVESGGGLVQPGGSLRLSCATSGFTFSDFYMEWVRQPPGKRLEWIAASRNKANDYTTEYSASVKGRFTVSRDDSKSSLYLQMNSLRAEDTAIYYCARDAHGKPFAYWGQGTTVTVSS[human IgG1 constant region not written out]GGGGSGGGGSGGGGSQSVLTQPPSASGTPGQRVTISCTGSSSNIGSNDVSWYQQLPGTAPKLLIYANSNRPSGVPDRFSGSKSGTSASLAISGLRSEDEADYYCGTWAGSLNGYVFGCGTKLTVLGGGGSGGGGSGGGGSGGGGSEVQLLESGGGLVQPGGSLRLSCAASGFTFSSYDMSWVRQAPGKCLEWVSAISYDNGNTYYADSVKGRFTISRDNSKNTLYLQMNSLRAEDTAVYYCAKGVLTTLMNWFDYWGQGTLVTVSS
light: DIVMTQSPSSLAVSLGERVTMS[about 80 residues not written out][about 120 residues not written out]
As a reminder, the EC50 is the concentration that produces a half-maximal response. The low end stands for an effect from little substance, the high end for a need for much substance. In assay [1], B1 yielded an EC50 of 0.147 nM.

B2: hu11F11-1564(ver.3) (bispecific antibody)
heavy: EVQLVESGGGLVQPGGSLRLSCATSGFTFSDFYMEWVRQPPGKRLEWIAASRNKANDYTTEYSASVKGRFTISRDTSKSSLYLQMNSLRAEDTAIYYCARDAHGKPFAYWGQGTTVTVSS[human IgG1 constant region not written out]GGGGSGGGGSGGGGSQSVLTQPPSASGTPGQRVTISCTGSSSNIGSNDVSWYQQLPGTAPKLLIYANSNRPSGVSDRFSGSKSGTSASLAISGLRSEDEADYYCGAWDDSLNGYVFGCGTKLTVLGGGGSGGGGSGGGGSGGGGSEVQLLESGGGLVQPGGSLRLSCAASGFTFSSYDMSWVRQAPGKCLEWVSAISYDNGNTYYADSVKGRFTISRDNSKNTLYLQMNSLRAEDTAVYYCAKGVLTTLMNWFDYWGQGTLVTVSS
light: DIVMTQSPSSLAVSLGERVTMS[about 80 residues not written out][about 120 residues not written out]
In assay [2], B2 gave an EC50 of 0.874 nM.

B3: Hu11F11(ver.2)-VH32 bivalent (bispecific antibody, human IgG1, kappa)
heavy: EVQLVESGGGLVQPGGSLRLSCATSGFTFSDFYMEWVRQPPGKRLEWIAASRNKANDYTTEYSASVKGRFTVSRDDSKSSLYLQMNSLRAEDTAIYYCARDAHGKPFAYWGQGTTVTVSS[human IgG1 constant region not written out]GGGGSGGGGSGGGGSQSVLTQPPSASGTPGQRVTISCTGSSSNIGSNDVSWYQQLPGTAPKLLIYANSNRPSGVPDRFSGSKSGTSASLAISGLRSEDEADYYCGAWDDSLNGYVFGCGTKLTVLGGGGSGGGGSGGGGSGGGGSEVQLLESGGGLVQPGGSLRLSCAASGFTFSSYAMSWVRQAPGKCLEWVSAISYDNGNTYYADSVKGRFTISRDNSKNTLYLQMNSLRAEDTAVYYCAKGVLTTLANWFDYWGQGTLVTVSS
light: DIVMTQSPSSLAVSLGERVTMS[about 80 residues not written out][about 120 residues not written out]
Turning to B3, the “GeoMean, Internalization at 37° C.” value with human IGF1R on cells was 3.24. In addition, the response in assay [1] was half-maximal at 121 nM (EC50).

B4: Hu11F11(ver.2)-VH7 bivalent (bispecific antibody, human IgG1, kappa)
heavy: EVQLVESGGGLVQPGGSLRLSCATSGFTFSDFYMEWVRQPPGKRLEWIAASRNKANDYTTEYSASVKGRFTVSRDDSKSSLYLQMNSLRAEDTAIYYCARDAHGKPFAYWGQGTTVTVSS[human IgG1 constant region not written out]GGGGSGGGGSGGGGSQSVLTQPPSASGTPGQRVTISCTGSSSNIGSNDVSWYQQLPGTAPKLLIYANSNRPSGVPDRFSGSKSGTSASLAISGLRSEDEADYYCGAWDDSLNGYVFGCGTKLTVLGGGGSGGGGSGGGGSGGGGSEVQLLESGGGLVQPGGSLRLSCAASGFTFSSYAMSWVRQAPGKCLEWVSAISYDNGSTYYADSVKGRFTISRDNSKNTLYLQMNSLRAEDTAVYYCAKGVLTTLMNWFDYWGQGTLVTVSS
light: DIVMTQSPSSLAVSLGERVTMS[about 80 residues not written out][about 120 residues not written out]
Turning to B4, the “GeoMean, Internalization at 37° C.” value with human IGF1R on cells was 3.84. For the same molecule, the EC50 in assay [1] is 402 nM.

B5: Hu11F11(ver.2)-VH2 bivalent (bispecific antibody, human IgG1, kappa)
heavy: EVQLVESGGGLVQPGGSLRLSCATSGFTFSDFYMEWVRQPPGKRLEWIAASRNKANDYTTEYSASVKGRFTVSRDDSKSSLYLQMNSLRAEDTAIYYCARDAHGKPFAYWGQGTTVTVSS[human IgG1 constant region not written out]GGGGSGGGGSGGGGSQSVLTQPPSASGTPGQRVTISCTGSSSNIGSNDVSWYQQLPGTAPKLLIYANSNRPSGVPDRFSGSKSGTSASLAISGLRSEDEADYYCGAWDDSLNGYVFGCGTKLTVLGGGGSGGGGSGGGGSGGGGSEVQLLESGGGLVQPGGSLRLSCAASGFTFSSYAMSWVRQAPGKCLEWVSAISGSNGNTYYADSVKGRFTISRDNSKNTLYLQMNSLRAEDTAVYYCAKGVLTTLANWFDYWGQGTLVTVSS
light: DIVMTQSPSSLAVSLGERVTMS[about 80 residues not written out][about 120 residues not written out]
As to B5, in the assay with human IGF1R on cells, the “GeoMean, Internalization at 37° C.” value turned out to be 3.19. Moreover, the EC50 in assay [1] amounted to 135 nM.

B6: Hu11F11(ver.2)-VH35 bivalent (bispecific antibody, human IgG1, kappa)
heavy: EVQLVESGGGLVQPGGSLRLSCATSGFTFSDFYMEWVRQPPGKRLEWIAASRNKANDYTTEYSASVKGRFTVSRDDSKSSLYLQMNSLRAEDTAIYYCARDAHGKPFAYWGQGTTVTVSS[human IgG1 constant region not written out]GGGGSGGGGSGGGGSQSVLTQPPSASGTPGQRVTISCTGSSSNIGSNDVSWYQQLPGTAPKLLIYANSNRPSGVPDRFSGSKSGTSASLAISGLRSEDEADYYCGAWDDSLNGYVFGCGTKLTVLGGGGSGGGGSGGGGSGGGGSEVQLLESGGGLVQPGGSLRLSCAASGFTFSSYDMSWVRQAPGKCLEWVSAISYDNGSTYYADSVKGRFTISRDNSKNTLYLQMNSLRAEDTAVYYCAKGVLTTLMNWFDSWGQGTLVTVSS
light: DIVMTQSPSSLAVSLGERVTMS[about 80 residues not written out][about 120 residues not written out]
In the case of B6, the “GeoMean, Internalization at 37° C.” value with human IGF1R on cells was 7.28. Further, in assay [1], a half-maximal effect (EC50) was put at 0.167 nM.

B7: Hu11F11(ver.2)-VH16 bivalent (bispecific antibody, human IgG1, kappa)
heavy: EVQLVESGGGLVQPGGSLRLSCATSGFTFSDFYMEWVRQPPGKRLEWIAASRNKANDYTTEYSASVKGRFTVSRDDSKSSLYLQMNSLRAEDTAIYYCARDAHGKPFAYWGQGTTVTVSS[human IgG1 constant region not written out]GGGGSGGGGSGGGGSQSVLTQPPSASGTPGQRVTISCTGSSSNIGSNDVSWYQQLPGTAPKLLIYANSNRPSGVPDRFSGSKSGTSASLAISGLRSEDEADYYCGAWDDSLNGYVFGCGTKLTVLGGGGSGGGGSGGGGSGGGGSEVQLLESGGGLVQPGGSLRLSCAASGFTFSSYDMSWVRQAPGKCLEWVSAISGSNGNTYYADSVKGRFTISRDNSKNTLYLQMNSLRAEDTAVYYCAKGVLTTLMNWFDYWGQGTLVTVSS
light: DIVMTQSPSSLAVSLGERVTMS[about 80 residues not written out][about 120 residues not written out]
As to B7, the “GeoMean, Internalization at 37° C.” value with human IGF1R on cells amounted to 5.83. Also, the response in assay [1] was half-maximal at 0.236 nM (EC50).

B8: Hu11F11(ver.2)-VH9 bivalent (bispecific antibody, human IgG1, kappa)
heavy: EVQLVESGGGLVQPGGSLRLSCATSGFTFSDFYMEWVRQPPGKRLEWIAASRNKANDYTTEYSASVKGRFTVSRDDSKSSLYLQMNSLRAEDTAIYYCARDAHGKPFAYWGQGTTVTVSS[human IgG1 constant region not written out]GGGGSGGGGSGGGGSQSVLTQPPSASGTPGQRVTISCTGSSSNIGSNDVSWYQQLPGTAPKLLIYANSNRPSGVPDRFSGSKSGTSASLAISGLRSEDEADYYCGAWDDSLNGYVFGCGTKLTVLGGGGSGGGGSGGGGSGGGGSEVQLLESGGGLVQPGGSLRLSCAASGFTFSSYDMSWVRQAPGKCLEWVSAISGDNGNTYYADSVKGRFTISRDNSKNTLYLQMNSLRAEDTAVYYCAKGVLTTLMNWFDYWGQGTLVTVSS
light: DIVMTQSPSSLAVSLGERVTMS[about 80 residues not written out][about 120 residues not written out]
With B8, the “GeoMean, Internalization at 37° C.” value with human IGF1R on cells amounted to 5.01. The same molecule returned a 50% effective concentration (EC50) in assay [1] of 6.06 nM.

B9: Hu11F11(ver.2)-VH5 bivalent (bispecific antibody, human IgG1, kappa)
heavy: EVQLVESGGGLVQPGGSLRLSCATSGFTFSDFYMEWVRQPPGKRLEWIAASRNKANDYTTEYSASVKGRFTVSRDDSKSSLYLQMNSLRAEDTAIYYCARDAHGKPFAYWGQGTTVTVSS[human IgG1 constant region not written out]GGGGSGGGGSGGGGSQSVLTQPPSASGTPGQRVTISCTGSSSNIGSNDVSWYQQLPGTAPKLLIYANSNRPSGVPDRFSGSKSGTSASLAISGLRSEDEADYYCGAWDDSLNGYVFGCGTKLTVLGGGGSGGGGSGGGGSGGGGSEVQLLESGGGLVQPGGSLRLSCAASGFTFSSYDMSWVRQAPGKCLEWVSAISGDNGSTYYADSVKGRFTISRDNSKNTLYLQMNSLRAEDTAVYYCAKGVLTTLMNWFDSWGQGTLVTVSS
light: DIVMTQSPSSLAVSLGERVTMS[about 80 residues not written out][about 120 residues not written out]
For B9, the “GeoMean, Internalization at 37° C.” value with human IGF1R on cells came to 6.1. The molecule further returned an EC50 in assay [1] of 0.366 nM.
